# Measured values taken from paper PMC5892938.
# The list shows a part of the results. The source does not settle which construct or isoform was used.
# Biological target: GST-SBP-ILF3 (Homo sapiens) (UniProt Q12906)
# Assay: targeted RNA Bind-n-Seq
# Settings: RBNS binding buffer: 25 mM Tris pH 7.5, 150 mM KCl, 3 mM MgCl2, 0.1% Tween, 0.5 mg/mL BSA, 1 mM DTT; 27 nM protein, 750 pM RNA pool; temperature not stated; high values mean tight binding; sequences stand for … in GGGUAAAAGCGAGGUGAA…CGGGACAAGUAUUAUGGG
row,Sequence,binding signal (log2 fold change)
1,UUUUUUUUUUGAGAUGGGAGCCAUCUCCUG [tttttgagapaired],0.426
2,UUUUUUUUUUGAGAGCGAUACGCUCUCCGG [tttttgagapaired],0.0235
3,UUUUUUUUUUGAGAGUGUGGCAUUCUUCUA [tttttgagapaired],0.442
4,UUUUUUUUUUGAGAACGAUACGUUCUCCUA [tttttgagapaired],-0.0565
5,GUGUGUUGUGUUGGCAUCUAACACAGCACA [gtspaired],-0.926
6,UUUUUUUUUUGAGAAGGACUCCUUCUCCGG [tttttgagapaired],-0.155
7,GUGGUUGGUGUUGGAGCCUAACACCGACCG [gtspaired],-0.572
8,GUGGUGUGUGUUGGUCCCUAACACACAUCG [gtspaired],-0.602
9,GUGUGUGGUGUUGGAUUCUAACACCACGCG [gtspaired],-0.501
10,UUUUUUUUUUGAGAUCGACACGAUCUCCGG [tttttgagapaired],0.227
11,GGUGUGUGUGUUGGCUUCUAACACAUACGC [gtspaired],-0.853
12,GUGGUGUGUGUUGGUAUCUAACACAUACUA [gtspaired],-0.351
13,UUUUUUUUUUGAGAUCGAUACGAUCUCCUA [tttttgagapaired],0.0919
14,UUUUUUUUUUGAGACUGGGGCAGUCUCCUA [tttttgagapaired],0.582
15,GGUGUUGGUGUUGGAAUCUAACACCAGCGC [gtspaired],-0.665
16,GUGGUUGGUGUUGGUAUCUAACACCGACUA [gtspaired],-0.488
17,UUUUUUUUUUGAGACCGACACGGUCUCCAG [tttttgagapaired],0.337
18,GUGUGUGGUGUUGGCCUCUAACACCAUACA [gtspaired],-0.518
19,UUUUUUUUUUGAGACGGUUUCCGUCUCCGG [tttttgagapaired],0.305
20,UUUUUUUUUUGAGACGGAAACCGUUUCCGG [tttttgagapaired],0.493
21,UUUUUUUUUUGAGAUCGAAUCGAUCUCCUA [tttttgagapaired],0.0834
22,UUUUUUUUUUGAGAGUGAAACACUCUCCUA [tttttgagapaired],0.0078

row,Sequence,binding signal (log2 fold change)
1,UUUUUUUUUUGAGAUGGUUUCCAUCUUCUA [tttttgagapaired],0.028
2,UUUUUUUUUUGAGAGGGGCCCCCUCUCCUG [tttttgagapaired],1.36
3,UUUUUUUUUUGAGAAGGUAUCCUUCUCCUG [tttttgagapaired],-0.0538
4,GUUGGUGGUGUUGGCGCCUAACACCGCCAG [gtspaired],-0.485
5,UUUUUUUUUUGAGACCGGGCCGGUUUCCAG [tttttgagapaired],0.69
6,UUUUUUUUUUGAGAUGGUGACCAUCUCCUG [tttttgagapaired],0.429
7,UUUUUUUUUUGAGACGGGAGCCGUCUCCUG [tttttgagapaired],0.524
8,UUUUUUUUUUGAGACGGGAUCCGUCUUCUA [tttttgagapaired],0.0738
9,GUUGGUGGUGUUGGAACCUAACACCGCCGA [gtspaired],-0.494
10,UUUUUUUUUUGAGAGCGUCACGCUCUCCGG [tttttgagapaired],0.607
11,GUGUUGUGUGUUGGCAUCUAACACACAGCG [gtspaired],-0.749
12,UUUUUUUUUUGAGACUGCAGCAGUCUCCAG [tttttgagapaired],0.612
13,UUUUUUUUUUGAGAGGGGUCCCCUCUCCUG [tttttgagapaired],1.03
14,UUUUUUUUUUGAGAUGGGAGCCAUCUCCGG [tttttgagapaired],0.209
15,UUUUUUUUUUGAGACGGGCGCCGUCUCCUG [tttttgagapaired],0.876
16,UUUUUUUUUUGAGAUCGUGUCGAUCUCCAG [tttttgagapaired],0.378
17,GUGGUGUGUGUUGGCUCCUAACACACAUCG [gtspaired],-0.591
18,GUGUGUUGUGUUGGAGUCUAACACAGCGCG [gtspaired],-0.804
19,GGUGGUUGUGUUGGAGUCUAACACAAUCGC [gtspaired],-0.0498
20,UUUUUUUUUUGAGACCGUGUCGGUCUCCGG [tttttgagapaired],0.651
21,UUUUUUUUUUGAGAGGGGCGCCCUCUCCGG [tttttgagapaired],0.707
22,UUUUUUUUUUGAGACGGACUCCGUCUUCUA [tttttgagapaired],0.408

row,Sequence,binding signal (log2 fold change)
1,UUUUUUUUUUGAGAGCGGCACGUUCUCCGG [tttttgagapaired],0.452
2,GGUGGUGGUGUUGGUAUCUAACACCAUCGC [gtspaired],-0.488
3,UUUUUUUUUUGAGAGCGAGCCGUUCUCCAG [tttttgagapaired],0.322
4,UUUUUUUUUUGAGAGGGCUUCCCUCUCCGG [tttttgagapaired],0.414
5,GUGGUGUGUGUUGGUGCCUAACACAUACCA [gtspaired],-0.503
6,GUGGUGUGUGUUGGAUCCUAACACAUACCA [gtspaired],-0.543
7,GUGGUUGGUGUUGGUGCCUAACACCGACCG [gtspaired],-0.532
8,GUUGUGUGUGUUGGAACCUAACACACACGA [gtspaired],-0.506
9,UUUUUUUUUUGAGACGGACACCGUCUCCAG [tttttgagapaired],0.401
10,GGUGUUGGUGUUGGAACCUAACACCAGCGC [gtspaired],-0.562
11,UUUUUUUUUUGAGACUGCAGCAGUUUCCGG [tttttgagapaired],0.837
12,UUUUUUUUUUGAGACCGGAGCGGUCUUCUG [tttttgagapaired],0.784
13,UUUUUUUUUUGAGACGGAUUCCGUUUCCGG [tttttgagapaired],0.416
14,UUUUUUUUUUGAGACUGCUGCAGUCUCCGG [tttttgagapaired],0.629
15,UUUUUUUUUUGAGAGCGUAACGCUCUCCUA [tttttgagapaired],0.212
16,GUGGUUGGUGUUGGUGUCUAACACCGACUA [gtspaired],-0.593
17,GUGGUUGGUGUUGGUCCCUAACACCGACCA [gtspaired],-0.265
18,UUUUUUUUUUGAGAUCGGUCCGAUCUCCUA [tttttgagapaired],0.401
19,UUUUUUUUUUGAGAGUGAAACACUCUCCAG [tttttgagapaired],-0.151
20,GGUGGUUGUGUUGGACUCUAACACAGCUAC [gtspaired],-0.707
21,UUUUUUUUUUGAGACUGAAUCAGUUUCCAG [tttttgagapaired],0.27
22,UUCUCUCUUCCUCCAAUGGAGGAGGGGAGA [ctspaired],-0.674
